According to the supplement of paper PMC3334620:
In all, about 33,000 sequences were measured (“E-score (-0.5 to 0.5)”: median about -0.012, highest 2% from about 0.27 on). Some of the results follow.

biological target: T1, Vhr1 (UniProt P40522); assay: PBM E-score (8-mer binding enrichment) (E-score (-0.5 to 0.5)); higher = stronger / more preferred TF binding; most listed sequences are background and not binding sites; conditions: protein concentration: 200 nM; construct: GST-full length
T1 sequence: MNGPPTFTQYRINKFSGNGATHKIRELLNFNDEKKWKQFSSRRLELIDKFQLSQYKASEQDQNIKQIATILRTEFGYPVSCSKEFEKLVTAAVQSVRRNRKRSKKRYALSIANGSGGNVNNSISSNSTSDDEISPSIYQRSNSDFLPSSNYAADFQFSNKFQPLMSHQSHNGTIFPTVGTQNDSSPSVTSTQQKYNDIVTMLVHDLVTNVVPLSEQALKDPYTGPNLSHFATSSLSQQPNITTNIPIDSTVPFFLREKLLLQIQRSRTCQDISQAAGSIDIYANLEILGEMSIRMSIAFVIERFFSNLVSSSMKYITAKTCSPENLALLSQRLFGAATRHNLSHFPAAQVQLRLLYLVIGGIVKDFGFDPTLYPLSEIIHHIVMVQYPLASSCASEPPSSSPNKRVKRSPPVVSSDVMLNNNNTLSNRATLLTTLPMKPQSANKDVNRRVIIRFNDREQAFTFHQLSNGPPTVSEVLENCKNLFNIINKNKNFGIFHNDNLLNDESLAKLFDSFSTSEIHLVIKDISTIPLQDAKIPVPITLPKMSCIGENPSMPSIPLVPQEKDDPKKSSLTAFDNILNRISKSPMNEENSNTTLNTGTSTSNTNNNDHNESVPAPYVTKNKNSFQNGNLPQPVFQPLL
Method in brief: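 PURExpress in vitro transcription/translation supplied GST-tagged yeast transcription factors, either full-length or DNA-binding domain. Applied at about 100-200 nM to universal all-10-mer Agilent arrays double-stranded by primer extension, the bound protein was detected with fluorescent anti-GST. E-scores, modified Wilcoxon-Mann-Whitney statistics, were given by the Universal PBM Analysis Suite to ungapped eight-base words pooled with their reverse complements after masliner normalisation.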

Sequence	PBM E-score
AGAGACAG	-0.0107
GAGTCCTA	0.185
ATAGGGTA	0.15
AACTCCAC	-0.033
AAGGTCAA	-0.0699
GCAGAGCA	-0.0587
CTTGCGAC	-0.144
ATTTGGAA	-0.12
TAATTCCA	0.00948
CTAGGATC	-0.148
GACCAGGC	-0.0346
ACGCTTAT	-0.167
CGGCGATC	0.161
CCGGCAGA	-0.238
GCGCCGGA	-0.0486
GCTTAACA	-0.117
CGGCCCCA	-0.256
ATCGAGCC	-0.0957
TCGGTGCA	0.0154
CTCACATA	0.186
TAGTGGAA	-0.242
TGAAGGCA	-0.196
CATGCATA	0.0152
CTTTAGTA	-0.1
AGCTGTGA	0.0331

Sequence	PBM E-score
AAGTACTC	0.0478
CAATAGTA	0.0779
AAATCCAG	-0.0628
GTTCGTAA	-0.00434
GTTGTCCA	0.0188
AGAATGAT	0.215
AAAGCATT	-0.158
CCATGCAA	0.033
GCGACTAC	0.341
ACAACTCC	0.0431
ACTGGCTG	0.0954
GGGGGACC	-0.0584
CGATCTAA	0.0349
AACCCAGT	0.116
AAGGTGTA	-0.119
CACTGCCA	0.124
ATCCGGGG	0.223
AATTAACA	0.0375
TGGCGACA	0.1
TAAAACTA	-0.102
AGAAGTTC	-0.247
CTATACGC	0.152
CTGCTTCC	-0.275
ATAATGGC	0.0598
GTCGAAAA	-0.187

Sequence	PBM E-score
AATGCTCC	-0.208
AGCCTGGG	0.0474
CAACCTAG	0.0465
CAGTCCCA	0.0293
AAGGGAAG	0.0285
CTTGGTCC	-0.0873
CACAACAG	0.0574
AGAATACG	-0.12
GAACACAC	0.191
CAGCAGGA	0.161
AACCGGGA	0.00811
AAAGGTTC	-0.229
TCAGTGCA	0.0754
CAATGGTC	0.115
CAAATCCG	-0.0618
ACATAGCG	-0.0588
CTTTGCAC	-0.125
CAGGAGAC	0.129
GCATCCTA	-0.0643
ACAGCCTA	0.0389
ATCAACTG	0.118
AAGAGGTC	-0.0935
GCCGTTAA	-0.105
CCCGTCGG	0.065
GTTCACTA	-0.133

Sequence	PBM E-score
CAATTGCG	-0.0118
AATGTTCC	-0.0334
AGGTCATC	-0.103
GCCCCAAC	0.0402
GAAGAGCC	-0.0925
AGTCCGTA	-0.0543
CCCCTATC	-0.087
ACCGCACG	-0.135
ACTCGCAC	0.247
ATATAGTG	0.221
CCAGTTAC	-0.213
ATCCCAGG	-0.0351
CCTAAAAA	-0.196
TGGCAAAA	0.0202
ACAATTAT	0.00539
ATTTGTGG	0.118
ACCAGACT	-0.0222
ACGAAGTG	0.0484
CTTAAATC	-0.0588
TCAAGTAA	-0.0786
GCGTTCAA	-0.15
ATAAGCCG	-0.0884
CTCGTTCA	0.00535
GTTGCAGA	-0.212
TTCTACAA	-0.0392

Sequence	PBM E-score
TCCCTTAA	-0.201
AAGATTAT	0.0577
CCGGGTCC	-0.125
TAATACAA	0.209
GATTATTA	0.0488
AATTTAGA	-0.16
AAATCCCA	-0.222
CCAACCGC	0.109
GGTGGCTA	0.148
TCCGCCCA	-0.0417
TAGGTATA	0.116
AAATATGC	-0.13
GAATGGAC	-0.0671
CCGTATTA	0.109
ATGGTGTC	0.27
ACGATTCC	0.185
CAATGGGA	-0.023
ATGGTATC	0.287
GTTATTGA	-0.0104
ATTCGTCA	0.0532
ACCCTGAC	0.184
GGATCTGA	0.0507
AGTATCTA	0.0871
CCTTAGGC	-0.264
AGTGTGCG	0.0451

Sequence	PBM E-score
CCGCTGTA	0.13
CGCCCACG	-0.0841
CAATCGCA	0.143
ACGACTCA	0.445
GTCACTTA	0.155
ATGGGCCG	0.121
TTAATTAA	-0.0237
GACGCATC	0.00633
CGCCTAGA	-0.032
CATAGGCA	-0.121
GGGAAGTA	-0.02
TCCCCGAA	-0.218
GGTCCTAA	-0.044
ACAGGCGT	-0.22
ATCTTTAA	-0.105
ACTTATAT	0.199
AGGGGCGC	0.0808
AAGGAGCC	-0.114
AAACTTTC	-0.246
CCATGCTC	0.118
CAAAAGAA	0.00762
CTCTGTGC	-0.0953
CAAGATTA	0.0396
CTTGTCTC	-0.109
AAAGCCCC	-0.147

Sequence	PBM E-score
CAAAGCAG	-0.0823
AGGAGGAG	-0.171
CTTTGATA	0.00159
CGGTGTTC	0.0334
AGGCGAAT	-0.146
GGTACGAA	0.14
GCTCACAC	0.148
GAGATGCA	0.17
ATGCTGGG	0.097
AATTTACG	-0.0773
ACCAGTCG	0.166
AAGTCGGC	-0.177
CAGAGAAA	0.153
ATCGTGTC	0.115
ATTAATGA	0.199
ACGTGAGG	-0.107
ATCAGAGG	-0.156
AAACAATC	-0.063
CAATCCCA	-0.0663
ATACATGG	0.251
CGCTTGAA	-0.0421
CTGGATTC	0.0775
